# According to PubChem BioAssay AID1460 (National Center for Advancing Translational Sciences (NCATS), 2008):
# Out of some 270,000 compounds screened, about 5,800 (2.1%) were called active. The shares of active, inactive and inconclusive entries below differ from those in the screen. The call rests on the fitted dose curve; in most records, active means well fitted inhibition curve with a large enough effect; inconclusive means small, poorly fitted or top-dose-only effect; inactive means flat fitted curve, though single readings scatter. Potencies of inconclusive entries are doubtful fits and often do not repeat.
# Target: Microtubule-associated protein tau (Homo sapiens) (UniProt P10636)
# Chain of UniProt P10636 (P10636 whole entry, looked up): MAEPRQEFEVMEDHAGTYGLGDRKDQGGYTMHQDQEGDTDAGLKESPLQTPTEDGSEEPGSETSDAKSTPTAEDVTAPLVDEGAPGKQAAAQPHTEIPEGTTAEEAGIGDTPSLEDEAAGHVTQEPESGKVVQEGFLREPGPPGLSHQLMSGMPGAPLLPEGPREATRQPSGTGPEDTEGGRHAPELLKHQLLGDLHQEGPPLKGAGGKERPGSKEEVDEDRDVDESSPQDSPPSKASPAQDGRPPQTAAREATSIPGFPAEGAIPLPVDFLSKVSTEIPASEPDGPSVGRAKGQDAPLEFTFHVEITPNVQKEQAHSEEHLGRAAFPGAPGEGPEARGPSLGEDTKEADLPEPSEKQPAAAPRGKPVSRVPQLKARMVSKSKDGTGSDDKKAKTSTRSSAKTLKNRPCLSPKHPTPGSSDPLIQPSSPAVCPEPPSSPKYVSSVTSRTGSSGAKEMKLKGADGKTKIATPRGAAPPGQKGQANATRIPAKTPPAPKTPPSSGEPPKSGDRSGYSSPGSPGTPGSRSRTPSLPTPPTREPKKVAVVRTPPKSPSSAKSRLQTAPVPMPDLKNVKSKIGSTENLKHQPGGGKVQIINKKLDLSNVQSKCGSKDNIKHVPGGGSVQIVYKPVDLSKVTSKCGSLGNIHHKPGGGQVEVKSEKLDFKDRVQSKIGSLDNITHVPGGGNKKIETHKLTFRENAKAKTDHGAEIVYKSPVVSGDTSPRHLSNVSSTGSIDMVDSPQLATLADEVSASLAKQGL
# Assay: qHTS for Inhibitors of Tau Fibril Formation, Thioflavin T Binding; further: nearly all actives have a fitted effect of over 55% in size
# Settings: recombinant tau K18 P301L (four-repeat tau fragment), heparin-induced fibrillization, ThT fluorescence; series mostly up to 57.4 µM; activity, negative = inhibition: at the top concentration
# Summary of the method: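 Heparin-induced fibrillization of the P301L-mutant K18 repeat-domain fragment of human tau was followed by ThT binding in quantitative high-throughput format.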
# On the % scale 0 is the no-effect control and ±100 the full control effect; potency means the concentration at half of the fitted maximal effect; tags describe the fitted curve by direction and shape.
SMILES,"activity, negative = inhibition",Potency
O=C(c1ccco1)N1CCN(C(=O)C2(S(=O)(=O)c3ccc(Cl)cc3)CC2)CC1,inactive: 4.42%,
Cc1ccc(-n2cccc2/C=C2\C(=N)N3N=C(C(C)C)SC3=NC2=O)cc1,,"inconclusive: 17.8 µM [inhibitor, partial curve]"
O=C(Nc1ccc(N2CCOCC2)cc1)c1ccncc1,,"inconclusive: 31.6 µM [inhibitor, partial curve, poor fit]"
Cc1ccc(/C=C/c2onc(C)c2S(=O)(=O)N2CCC(C(=O)NCc3ccc(C)o3)CC2)cc1,inactive: 9.7%,
COc1ccc(OC)c(/C=N/N(C)c2ccccc2)c1,,active: 12.6 µM
Cc1nc(C)c(-c2csc(Nc3cccc(O)c3)n2)s1,,active: 4.47 µM
CCOC(=O)C1=C(C)N=c2s/c(=C\c3cccn3C)c(=O)n2C1c1cccc(OC)c1OC (centres undefined),,"inconclusive: 7.08 µM [inhibitor, partial curve]"
O=C(CNc1ccccc1)c1ccc([N+](=O)[O-])cc1,,active: 14.1 µM
COc1ccc(/C=N/c2sc3c(c2C#N)CCN(Cc2ccccc2)C3)c(O)c1,,"inconclusive: 8.91 µM [inhibitor, partial curve]"
COc1cc(SC)ccc1C(=O)NCCOc1ccccc1Cl,,"inconclusive: 25.1 µM [inhibitor, single point]"
CCc1nnc(SCc2nc(-c3ccc(OC)c(OC)c3)oc2C)c2cc3sc(C)cc3n12,,"inconclusive: 12.6 µM [inhibitor, partial curve]"
Cc1ccc(C(C)C)c(OCC(=O)Nc2ccc(C(=O)OC3CCCCC3)cc2)c1,inactive: -7.11%,
O=C(/C=C/c1ccco1)NCc1ccccn1,,"inconclusive: 17.8 µM [inhibitor, partial curve]"
Cc1nc(-c2cccnc2)sc1C(=O)Nc1ccc(C(F)(F)F)cc1,,"inconclusive: 8.91 µM [inhibitor, full curve, poor fit]"
COc1ccc(C(=O)NC(=S)NNC(=O)c2ccc3ccccc3n2)cc1,,"inconclusive: 1.41 µM [inhibitor, partial curve]"
Cc1ccc(C)c(-n2c(CCC(=O)O)ccc2-c2ccc(Cl)cc2)c1,inactive: -16.8%,
O=C(NCc1ccc2c(c1)OCO2)c1cc([N+](=O)[O-])ccc1N1CCCCC1,,"inconclusive: 15.8 µM [inhibitor, partial curve]"
Cc1cc(C)cc(OC(=O)CS(=O)c2ccc(C(F)(F)F)cc2[N+](=O)[O-])c1 (centres undefined),,active: 12.6 µM
Cc1nc2c3cnn(-c4ccc(C)c(C)c4)c3ncn2n1,,"inconclusive: 8.91 µM [inhibitor, partial curve]"
